Laboratory results published in publication PMC10668032.
This is one part of the list. At the low end of the ranking the order means little.

What follows are sequences tested against SIX1 homeodomain (reference allele) (UniProt Q15475) (assay: universal protein binding microarray). Settings: Universal all-10-mer PBM (8x60K, AMADID 030236), 300 nM GST-tagged protein, Alexa Fluor 488 anti-GST; buffer, salt, pH and temperature not stated; high values mean tight binding; most listed sequences are background and not binding sites; double strand, one strand shown.

Sequence | binding signal [E-score]
ATACGTGG | 0.272
CAAAACAC | -0.0164
CTGCAAGC | -0.104
GAAGCCGC | -0.00785
ACATACCT | 0.065
AACTAGTC | -0.166
CAGGCGCA | -0.154
CTATTCCA | 0.0203
ATGACCGC | -0.0542
CAACTTCG | -0.0934
ATAAAACC | 0.0786
GTCCGGAA | -0.162
ATCGAATG | 0.0658
CTCTTCAC | 0.103
AAAATCCC | 0.0865
CTCACGAA | -0.142
AGTGAGTG | -0.0564
GCTGGAAC | -0.338
AACCACAA | -0.16
CATCCCCA | 0.0561
GGCCCGCA | -0.15
GGGGTAGA | 0.158
CAGGAAAC | -0.115
CCGTATTA | 0.322
CCAGTCTA | -0.0989

Sequence | binding signal [E-score]
AACCCCTG | -0.0306
CATCGAAC | -0.0557
GGCCCTTA | -0.161
CCGTCGGA | 0.0258
GTGACGTA | 0.00305
AGGCGTAC | -0.0669
GCATAACA | -0.1
GTAATTGA | -0.00036
ATAGTAAG | 0.0396
CTCTGATA | 0.312
AAAGCATT | -0.116
GCAATAGC | -0.0144
AATTCTGG | -0.0871
CGTTAGAC | 0.0127
ACCAGGGC | -0.159
CAGCCTGA | -0.0882
ACCGCAAC | 0.0379
ACCTTATG | -0.0053
CTCGTGGC | -0.156
GCATGACA | -0.0684
ACATGCGT | -0.159
TCGTGAGA | 0.211
CACTTTAA | -0.0446
AGGCGTTA | -0.185
CACTCTGG | -0.0261

Sequence | binding signal [E-score]
ACATCTAG | 0.0333
CATATAAG | 0.147
AGCGGTAG | -0.15
GACTCCCA | -0.233
ATACGCGA | 0.296
TCAATTAA | -0.0499
GCAAGTAA | -0.0799
CGCGACCC | 0.172
CAGAACTC | -0.175
AAAAACCT | -0.0824
GGCGCAAC | -0.244
GCCAAATA | -0.00988
CATATTAG | 0.191
ACACTGGG | 0.0696
ATTGCAAA | -0.165
AGGTCTCC | -0.0742
AATGGCGT | -0.0397
AGTTAGTC | -0.252
GTGATAGA | 0.0959
AGGGTCGC | -0.057
ACCAGGTA | 0.00634
GGCAAGAC | -0.0555
GCGCGAGA | 0.0119
AACGTTGC | -0.194
CGAGAACA | -0.0357

Sequence | binding signal [E-score]
ATTTCTAC | -0.197
CGTAGTAG | -0.12
CGCTTGTA | -0.194
GTTCACTA | -0.209
AGGCTAAT | -0.0147
AGTGCAGC | -0.199
GATCACCA | 0.334
AGGAACAA | -0.0494
ATACTATC | 0.401
GACGCCGA | 0.0316
ACCTCCGG | 0.148
CTCCCCAG | 0.0437
CCCTATCA | 0.429
CATAGTCC | -0.112
GCGAGCAA | -0.0421
CTGCGTTA | -0.0109
GGGTTTAC | 0.029
CGCCCTAA | -0.139
ATAACTCA | 0.00299
CATAGATC | 0.249
AGCCACCC | 0.138
GGTCATAC | 0.0523
GGTGACAA | -0.059
CGACGTCG | -0.0969
GCGCCTCC | -0.0789

Sequence | binding signal [E-score]
ACCTCCAC | 0.0581
AAGGTTAA | -0.185
AAACCTGA | -0.0717
GTTGCCGA | -0.286
CACCGCTG | -0.0451
CATTAACA | -0.0626
CCCTCTAA | -0.0629
GTAAACCA | 0.0641
AGGATTGG | -0.00881
ATTCCCTC | 0.0038
ACTTACCG | 0.152
CTAGGTAA | -0.143
AGCGAAGG | -0.178
CAGTGATC | 0.382
ACTTGGCT | -0.196
CCGGGCAG | 0.0688
ACAGGCAG | -0.0735
ACCGTGTA | 0.0874
ATCTAGCC | 0.18
AGCGCGGC | -0.236
GGGTTCGA | 0.0642
TCTATAGA | 0.126
ACCGGCAG | -0.0528
GAGGGTAC | 0.0142
AGAACCGA | 0.0277

Sequence | binding signal [E-score]
TAATTGGA | -0.0559
CGCAGGTC | -0.138
CATATTGC | 0.0469
AGTAATAG | -0.0417
CAAGCACG | -0.233
CACTACGG | -0.0195
GACGTATC | 0.42
GTTATGAA | -0.0671
CCCTGTAA | -0.194
GGACGTCA | -0.118
CGGGGTAC | 0.052
TAATACGA | 0.276
CGCTTACC | -0.112
ATGGCTAA | 0.135
ATACAGAC | 0.116
CGTCACCC | -0.218
CTGAATGA | 0.0226
CCGCTTTC | -0.131
AACTTCAA | -0.18
ATCAGATG | 0.319
AGAGAATG | -0.161
CCCCCAAC | -0.103
ACCAGACG | -0.0492
ACGCAGGC | 0.0252
AAGAGCAG | -0.0965

Sequence | binding signal [E-score]
AAGTCCAC | -0.269
AACGTTGT | -0.199
TACGGCTA | 0.185
CGGTGCAC | -0.0361
CGACGACG | -0.259
AGGTTCTA | 0.0305
GTAGCTAC | -0.114
CTTACACA | -0.0023
AAGCTCCA | -0.154
ACCCTTCG | -0.106
TACAAGGA | 0.136
CCCGGCGA | 0.0761
AATATCGA | 0.241
GATAGCGA | 0.251
CGACCACC | -0.0471
GCGTTTGA | -0.301
CCGTAGCA | 0.0604
GGTCGGAC | -0.0598
CCCTAGTA | 0.106
CTGCTTAC | -0.168
ATAAGGGG | 0.00055
AAAACCTC | -0.0345
GACCGCCC | -0.189
CATAATTA | 0.0477
AGTCAATG | 0.008

Sequence | binding signal [E-score]
AGAGTACA | -0.0908
ATTCATAA | -0.0344
ACCCACAA | 0.004
AGACTCAT | -0.0207
CTAATGAG | -0.0145
GGGAAAAA | -0.177
CGAGGGCC | 0.0254
TTGAACAA | -0.121
ACGATGAC | -0.0768
AAATCGTT | -0.196
GCGGCGAC | -0.162
GGGGCTAC | 0.00443
AGCGGGTC | -0.104
CCGACACA | -0.0231
ACGCAACT | -0.18
ATCAGGAG | 0.188
AAAAACTG | -0.235
ACTCCTGC | -0.0736
ACCTATGG | -0.0785
ATGCCTGA | -0.0148
CCTGCTGA | 0.0482
CCGGAACG | -0.177
GAAGATCA | 0.196
ACCAAAAT | 0.119
CTTTCCCC | -0.148

Sequence | binding signal [E-score]
AATCCTCG | -0.155
GGTAGGTA | -0.007
ACCGCGTG | 0.127
ACTCAGGG | 0.266
AGGCCAAT | -0.0338
CCCATCAA | -0.0956
ACCGGCCC | -0.0241
CATCCCTC | 0.111
ATCTGTCA | 0.208
GAGCGAGA | 0.108
CATCGTGG | -0.121
GAACGACA | -0.079
CTCTTTCA | -0.161
CGCCCGGC | -0.0259
CGACGGTA | -0.00819
AGCTGTTC | -0.215
CTATACCC | 0.369
GCACGCCA | -0.164
AGGTAGAC | 0.111
GCTAGATA | 0.255
TCGCGTCA | -0.0385
ACTCTAAT | -0.0388
AACCGATC | 0.335
CGGGCACG | -0.151
TACATTAA | 0.125

Sequence | binding signal [E-score]
TATCTCGA | 0.248
CAAGAGCC | -0.0786
ACTACGTC | -0.16
TCCTGCGA | 0.0828
GGATTAAA | 0.231
CTTCAGAC | -0.153
TAGGTCAA | -0.0979
ACGAGGTG | 0.0574
AAGGGCGC | -0.27
CCACAAGG | -0.2
TAAGAACA | -0.00693
ATGTCCAC | -0.0876
AACAAGCT | -0.283
AAGAGACG | 0.00789
AGCATTCC | -0.126
CTGTCAAG | -0.135
AGGGTTCG | -0.17
ATCGCCGA | 0.19
ATTAAAGG | -0.0467
ACGTCAGT | -0.112
AAGTGGAG | -0.0575
CATTTCAG | 0.0112
CATGGCCC | -0.0607
CGGGTGAG | 0.111
CCGGTAGA | 0.151

Sequence | binding signal [E-score]
AGTGGGGA | 0.0779
AATCTTCG | -0.098
CATCACAG | -0.0165
TCGCTGAA | 0.1
AAAGTCGA | -0.207
ACGAGGGC | -0.00505
AGGAAGGG | -0.294
AGAAGCGC | -0.139
AGGTTTAC | -0.0216
CTTGGGTA | 0.0812
AATATACT | 0.0741
CACGAAGC | -0.142
AGTAGATG | 0.139
CTTTTTGC | -0.231
CGTTATGC | -0.0637
GTCCACTA | -0.155
AAGGCTGT | 0.00683
ACGCTGCT | -0.231
ACGTAAGA | -0.167
ATGCTAAC | -0.127
GGCTAGCA | -0.182
CGGCAGAC | -0.0937
CGAGACCC | 0.116
CGGGATGA | 0.159
ACACGAAA | -0.0708

Sequence | binding signal [E-score]
ACCAACGA | 0.0145
AGCGTATG | 0.0372
ACTAATCT | 0.192
AGCCAGTG | -0.257
CGAGGGCG | -0.162
TGGCTACA | 0.0627
CGTGATTA | -0.0121
AGACTCGA | -0.247
GGCAAGCA | -0.263
AACAAGGA | 0.133
ATTGCGGG | 0.0992
GGTTCTAA | -0.0146
CCAGCAAG | -0.0893
ACAGCTTG | -0.0592
AAGCTTGC | -0.287
ATCTCGGG | 0.272
ATCGCGTC | 0.201
ATCACGTG | 0.113
AGAAGGGA | 0.131
GGCCCTAA | -0.213
CGGGTGCC | -0.0226
CCGCGCCG | 0.0988
AGCAAAAG | -0.185
AGCTTATA | 0.0649
CGCTACGC | -0.195

Sequence | binding signal [E-score]
CTGAATAC | 0.0928
GCGGAGAA | -0.0801
AATAAGGC | -0.0652
CCGGGGTA | 0.282
CCCCCTCG | -0.00232
ACCATTCG | -0.139
TAGCAATA | 0.121
AAACGAGT | 0.0864
ACGCAGCA | -0.139
CCGTCAGA | -0.0812
ACCGGAGG | 0.126
ACAGATGG | -0.0262
CAAGAAAC | -0.103
ACTCCTTG | -0.0322
GGGCCCAA | -0.162
CGCAGGAA | -0.035
GTTTGTCA | -0.132
AATGGCTG | -0.0545
AAACGCGA | -0.247
CGTGCGTC | 0.014
CCTAGCCG | -0.109
GAAAGTGA | -0.0181
GACAGGTA | 0.0735
AATGTTGA | 0.0497
AACCCAGT | -0.0779

Sequence | binding signal [E-score]
CACTACGC | -0.226
CGCTCTAG | -0.237
ATATGGGG | 0.4
AATGCTTA | -0.13
ACCACTTA | -0.103
GGCCCACA | -0.316
CTTTATTC | -0.191
CGTCCTTC | -0.0777
CAGCCAAG | -0.0893
GATGTCGA | 0.0781
AGACGCGC | -0.115
AGCTCCAC | -0.118
GCTTAAAC | -0.339
CCTACTAA | 0.031
AACCCTGG | 0.0352
CACCAAGA | 0.074
GCGCAATA | 0.135
CACCCCCG | 0.172
CCAACGGC | -0.322
